The whole screen tested about 340,000 compounds, of which about 12,000 (3.5%) were called active. Inconclusive means that the source gave no clear call. Such entries were picked first, then a sample of the others. The call rests on the fitted dose curve; in most records, active means well fitted inhibition curve with a large enough effect; inconclusive means small, poorly fitted or top-dose-only effect, or another doubt; inactive means no such curve, though single readings can be large or run the other way. No potency is given beside an inconclusive call; the fits are too rough.
experiment: qHTS Assay for Inhibitors of Hepatitis C Virus (HCV); settings: Huh7.5.1 HCVcc-Cre (HCVcc is cell-culture hepatitis C virus) infection, luciferase reporter, 44 h; series mostly up to 41.8 µM
In short: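 Cells seeded at 1,000/well and cultured 4 h, then compounds added followed by HCVcc-Cre virus (~0.5 moi). After 44 h further culture, luciferase substrate was added, plates held 15 min at room temperature, and luminescence read for 15 sec.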
Potency means the concentration at half of the fitted maximal effect; tags describe the fitted curve by direction and shape.

| Structure (SMILES) | Potency |
| --- | --- |
| CC1CC(C)CN(CCCNC(=O)Cn2cccc2C(=O)c2ccccc2)C1 (stereo not given) | inactive |
| O=C(/C=C/c1cn(CC(O)CN2CCCCC2)c2ccccc12)c1ccccc1 (stereo not given) | inconclusive [inhibitor, single point] |
| Fc1ccc(N/N=C/c2ccc(N3CCOCC3)cc2)c(F)c1 | inconclusive [inhibitor, partial curve] |
| CN(C)c1ccc(/C=C/C=C/c2sc3ccccc3[n+]2C)cc1 | inconclusive [inhibitor, partial curve] |
| Cc1ccc(C(=O)CCS(=O)(=O)c2ccc(Br)cc2)cc1 | inactive |
| CC(C)c1ccc(N2CC(C(=O)Nc3nccs3)CC2=O)cc1 (stereo not given) | inconclusive [inhibitor, partial curve] |
| COc1ccc(NC(C)=O)cc1NC(=O)CSc1nnc(-c2ccccc2)n1N | inactive |
| Cc1ccccc1-c1nc(CS(=O)CC(=O)NCCN2CCOCC2)c(C)o1 (stereo not given) | inactive |
| CCN(CC)c1ccc(/C=N\NC(=O)c2cccc3cc[nH]c23)cc1 | inconclusive [inhibitor, partial curve] |
| CN(CC(=O)Nc1ccc(Cl)cc1F)C1=NS(=O)(=O)c2ccccc21 | inconclusive [inhibitor, partial curve, poor fit] |
| CC(C)c1cc(C(F)(F)F)n2nc(C(=O)Nc3ccc4c(c3)OCO4)cc2n1 | active: 12.6 µM |
| NC(=O)C1CCN(c2nc(-c3ccccc3)nc3ccccc23)CC1 | inconclusive [inhibitor, single point] |
| NC(=O)c1ccc(OCC2CCCO2)cc1 (stereo not given) | inconclusive [inhibitor, single point] |
| N/C(=N\OC(=O)c1ccc(Cl)c(Cl)c1)c1ccccn1 | inactive |
| Cc1nc(-c2ccccc2)sc1-c1ccn[nH]1 | inconclusive [inhibitor, single point] |
| CCOC(=O)CCSc1nc(C)c2cc(C)ccc2n1 | inconclusive [inhibitor, single point] |
| Cn1cc(/C=C/c2cc[n+](C)cc2)c2cc(Cl)ccc21 | inconclusive [inhibitor, single point] |
| Cc1ccc(S(=O)(=O)Nc2ccc(NC(=O)Nc3cccc(C(F)(F)F)c3)cc2)cc1 | inconclusive [inhibitor, partial curve] |
| CCN(CC(=O)Nc1ccc2c(c1)OCCO2)C(=O)COc1ccc(C)cc1 | inactive |
| O=C(NNC(=O)c1ccccc1Br)c1cnccn1 | inconclusive [inhibitor, single point] |

— PubChem BioAssay AID651820 (National Center for Advancing Translational Sciences (NCATS), 2012)
